The campaign covered roughly 130,000 compounds. About 1,900 (1.5%) were called active. Inconclusive results, whose numbers are uncertain, are shown with a selection of clear calls. Calls follow the shape of the dose curve; as a rule, active = well fitted cell-killing curve with a large enough effect; inconclusive = small, poorly fitted or top-dose-only effect; inactive = no such curve, though single readings can be large or run the other way. A potency beside an inconclusive call is a rough fit, not a confirmed value.
Experiment: qHTS Screen for Compounds that Selectively Target Cancer Cells with p53 Mutations: Cytotoxicity of p53ts Cells at the Nonpermissive Temperature; also: nearly all actives have a fitted effect of over 55% in size
Details: H1299-p53A138V viability at 39C, ATP luminescence, 24 h; activity change, negative = cell killing: at 46.1 µM (top of the series)
% is scaled to controls: 0 for no effect and ±100 for the full control effect; potency is read from the fitted curve at half-maximal effect; tags tell the direction and shape of the fitted curve.

Row | SMILES | activity change, negative = cell killing | Potency
1 | CCOc1ccccc1NC(=O)Cn1c(=O)nc(-c2ccccc2F)c2cc(Cl)ccc21 | inactive: -1.81% | –
2 | CCN(CC)C(=O)Cn1c(SCC(=O)Nc2ccc(F)cc2)nc2ccccc21 | inactive: -11.5% | –
3 | CCc1ccc(CNC(=O)CN2C(=O)C3CCCCN3c3ccc(C(=O)N4CCCC4)cc32)cc1 (configuration not stated) | inactive: -19.1% | –
4 | CCOC(=O)c1cnc2c(ccc3ccccc32)c1Nc1ccccc1O | – | inconclusive: 15.8 µM [cytotoxic, single point]
5 | Cc1cccc(CNc2cc(-c3cccnc3)ncn2)c1 | inactive: -14.1% | –
6 | CCc1ccccc1N(CC)C(=O)c1cc2c(s1)-c1ccccc1SC2 | – | inconclusive: 12.6 µM [cytotoxic, partial curve]
7 | Cc1cccc(-n2ncc3c(NCCOCCO)ncnc32)c1 | – | inconclusive: 3.98 µM [cytotoxic, partial curve]
8 | COc1ccccc1-c1cc(C(=O)Nc2cccnc2)no1 | – | inconclusive: 15.8 µM [cytotoxic, partial curve]
9 | FC(F)C(F)(F)C1=CC(c2ccccc2)=NCCN1 | inactive: 6.1% | –
10 | CCOc1ccc(-c2cn3c(n2)sc2cc(C(=O)NC(C)C45CC6CC(CC(C6)C4)C5)ccc23)cc1 (configuration not stated) | inactive: 3.76% | –
11 | COc1ccc(-c2cn3c(n2)sc2cc(C(=O)NCCCN4CCN(C)CC4)ccc23)cc1 | – | inconclusive: 3.16 µM [cytotoxic, partial curve]
12 | CCOc1ccc(CNC(=O)c2cc3c(=O)oc4ccc(C)cc4c3s2)cc1 | inactive: -12.4% | –
13 | COc1ccc(C2C(C(=O)Nc3ccccc3)=C(C)Nc3nc(-c4ccc(Cl)cc4)nn32)cc1 (configuration not stated) | – | inconclusive: 15.8 µM [cytotoxic, single point]
14 | CCCCN(CC)C(=O)CSc1nc2c(sc3ccccc32)c(=O)n1CCc1ccccc1 | inactive: -13.5% | –
15 | O=C(Nc1ccc2oc(-c3ccccc3Cl)nc2c1)c1ncn[nH]1 | – | inconclusive: 10 µM [cytotoxic, partial curve]
16 | CN(C)c1ccc(-c2ccccc2)nn1 | – | inconclusive: 12.6 µM [cytotoxic, partial curve]
17 | COc1cccc(Cn2c(=O)c(-c3ccc(F)cc3)nc3cnc(N4CCNCC4)nc32)c1 | – | inconclusive: 25.1 µM [cytotoxic, single point]
18 | COc1ccccc1Nc1cc(C(=O)NCCCN(C)C2CCCCC2)c2ccccc2n1 | – | active: 10 µM
19 | CN1CCN(c2nc3cc(C(F)(F)F)ccc3n3cccc23)CC1 | – | inconclusive: 12.6 µM [cytotoxic, partial curve, poor fit]
20 | COc1ccc(-c2cn3nc(SCC(=O)Nc4cccc(C)c4C)ccc3n2)cc1 | – | active: 15.8 µM
21 | Cc1nn(C(=O)c2cccs2)c(N)c1-c1ccccc1 | – | inconclusive: 31.6 µM [cytotoxic, single point]
22 | O=S(=O)(NCCNC/C=C\c1ccc(Br)cc1)c1cccc2cnccc12 | – | active: 15.8 µM
23 | CCCCCCOC(=O)C(C#N)c1nc2ccccc2nc1N1CCN(CC)CC1 (configuration not stated) | – | inconclusive: 31.6 µM [cytotoxic, single point]
24 | O=C(Nc1ccc2c(c1)OCCO2)c1c(F)cccc1F | – | inconclusive: 3.98 µM [cytotoxic, partial curve]

Row | SMILES | activity change, negative = cell killing | Potency
25 | CCCCOc1cccc(C2c3c(-c4cc(C)ccc4O)n[nH]c3C(=O)N2CCOC)c1 (configuration not stated) | – | inconclusive: 31.6 µM [cytotoxic, single point]
26 | CCOCC(=O)Nc1nc2ccc(C)cc2s1 | – | inconclusive: 12.6 µM [cytotoxic, partial curve]
27 | Cc1c(/C(O)=C2/C(=O)C(=O)N(CCN3CCOCC3)C2c2cccs2)cnn1-c1ccccc1 (configuration not stated) | inactive: 0.632% | –
28 | Cc1cc(NS(=O)(=O)c2ccc(NC(=O)COc3cc(C)c(Br)cc3C(C)C)cc2)no1 | – | inconclusive: 12.6 µM [cytotoxic, partial curve]
29 | CCOc1ccc(N(CC)C(=O)Cn2cnc3sc(C)c(S(=O)(=O)N4CCN(c5ncccn5)CC4)c3c2=O)cc1 | inactive: -3.18% | –
30 | O=C(NC1CCCCC1)c1noc2c1CCCCC2 | – | inconclusive: 12.6 µM [cytotoxic, partial curve]
31 | CCN1CCN(C(=O)Cn2ncc3c4ccccc4n(Cc4c(C)cc(C)cc4C)c3c2=O)CC1 | – | inconclusive: 25.1 µM [cytotoxic, single point]
32 | CCCN1C(C(=O)c2ccccc2)=C(OC(=O)COc2ccc(C)cc2)c2ccccc2S1(=O)=O | – | inconclusive: 15.8 µM [cytotoxic, single point]
33 | COc1ccc(CNC(=O)CCCn2ccc3cc(S(=O)(=O)N4CCCC4)ccc32)cc1 | – | inconclusive: 17.8 µM [cytotoxic, single point]
34 | Brc1ccc(-c2nn3c(-c4ccccn4)nnc3s2)o1 | inactive: 5.05% | –
35 | Cc1ccc(-n2ncc3c(NCCCN(C)C)ncnc32)cc1Cl | – | active: 15.8 µM
36 | COc1ccc(-c2csc3ncnc(NCCN4CCOCC4)c23)cc1 | inactive: 3.99% | –
37 | Cc1ccc(-n2nc(C(=O)N(C)c3ccc(C)c(C)c3)c3c4ccccc4n(C)c3c2=O)cc1 | inactive: 21.7% | –
38 | CN(C)c1nc(-c2ccccc2C(F)(F)F)nc2ccccc12 | inactive: -10.6% | –
39 | COc1cccc(NC(=O)c2oc3ccccc3c2NC(=O)c2ccccc2C)c1 | inactive: -5.81% | –
40 | COc1ccccc1NC(=O)c1ncn(-c2ccccc2)n1 | – | inconclusive: 10 µM [cytotoxic, partial curve]
41 | CCCCN1C(=O)c2[nH]nc(-c3ccccc3O)c2C1c1ccc(OCc2ccccc2)c(OC)c1 (configuration not stated) | inactive: -11% | –
42 | CCOC(=O)c1cccc(NC(=O)CCc2c(C)nn(-c3ccc(N4CCCCC4)nn3)c2C)c1 | – | inconclusive: 12.6 µM [cytotoxic, partial curve]
43 | CCCCN(CCCC)CCCNC(=O)c1ccc2nc(N3CCCCC3)sc2c1 | inactive: -13.5% | –
44 | COc1ccccc1CNc1cc(-c2ccccc2Cl)ncn1 | – | inconclusive: 10 µM [cytotoxic, partial curve]
45 | Cc1cccc(OCC(=O)Nc2c(C(=O)Nc3ccc(F)cc3)oc3ccccc23)c1 | – | inconclusive: 10 µM [cytotoxic, partial curve]
46 | CCC1CN(C(=O)NCc2ccc(F)cc2)c2cc(C)ccc2O1 (configuration not stated) | – | inconclusive: 3.16 µM [cytotoxic, single point]
47 | COCCN1C(=O)c2ccc(C(=O)Nc3nccs3)cc2C1=O | inactive: -6.6% | –
48 | COc1ccc(S(=O)(=O)Nc2cccc(-c3ccc(N4CCCCCC4)nn3)c2)cc1OC | – | inconclusive: 3.98 µM [cytotoxic, full curve, poor fit]

Row | SMILES | activity change, negative = cell killing | Potency
49 | CCOC(=O)c1cccc(NC(=O)C2COc3ccc(OC)cc3C2)c1 (configuration not stated) | – | inconclusive: 0.02 µM [cytotoxic, full curve, poor fit]
50 | Cc1cccc(N(C)S(=O)(=O)c2nnc(NC(=O)C(C)Oc3ccccc3)s2)c1 (configuration not stated) | – | inconclusive: 31.6 µM [cytotoxic, single point]
51 | COc1cc(NC(=O)CC(C)C)ccc1NC(=O)c1ccco1 | inactive: -28.9% | –
52 | Cc1ccccc1Nc1c(-c2c[nH]c3ccccc23)nc2ccc(Cl)cn12 | – | inconclusive: 12.6 µM [cytotoxic, partial curve]
53 | Cc1ccc(CSC2=NC(C)(C)Nc3ccccc32)c(C)c1 | – | inconclusive: 0.891 µM [cytotoxic, full curve, poor fit]
54 | CO[C@@H]1COC(=O)[C@H](C)NC(=O)[C@@H](C)COC(=O)[C@H](C)NC(=O)C/C=C\[C@H]1C | inactive: 6.76% [at 9.22 µM] | –
55 | COc1ccc(C)c2sc(N(Cc3cccnc3)C(=O)c3cccs3)nc12 | inactive: -1.85% | –
56 | CC(C)(C)NC(=O)Nc1ccc2nccnc2c1 | – | inconclusive: 12.6 µM [cytotoxic, single point]
57 | CC(=O)Nc1ccc2nc(-c3cccs3)[nH]c2c1 | – | inconclusive: 7.94 µM [cytotoxic, partial curve]
58 | C=CC(=O)OCCCC | inactive: 6.7% | –
59 | CCOc1ccc(C(=O)Nc2ccc3nc(N(CC)CC)cc(C)c3c2)cc1 | – | inconclusive: 0.794 µM [cytotoxic, full curve, poor fit]
60 | Cc1ccc(/C=C/C(=O)Nc2ccc3nc(N4CCC(C)CC4)cc(C)c3c2)cc1 | inactive: -27.6% | –
61 | CC(C(=O)O)c1ccc(N2Cc3ccccc3C2=O)cc1 (configuration not stated) | – | active: 10 µM
62 | COc1cccc(NS(=O)(=O)c2ccc3[nH]cc(C(=O)NC(C)c4ccccc4)c(=O)c3c2)c1 (configuration not stated) | – | inconclusive: 12.6 µM [cytotoxic, single point]
63 | Nc1nc(Nc2cccc(F)c2)nc2ccccc12 | – | active: 12.6 µM
64 | CCOC(=O)c1c(C)[nH]c(C)c1S(=O)(=O)N1CCN(c2cc(Cl)ccc2C)CC1 | – | inconclusive: 12.6 µM [cytotoxic, partial curve]
65 | COc1ccccc1N1CCN(C(=O)CSc2nnc(NC(=O)c3ccco3)s2)CC1 | – | inconclusive: 12.6 µM [cytotoxic, partial curve]
66 | COc1ccc(NC(=O)NC(C)c2c(-n3cccc3)sc(C)c2C)cc1OC (configuration not stated) | – | inconclusive: 20 µM [cytotoxic, single point]
67 | CCOc1ccc(C(=O)CCN2CCCCCC2)cc1 | – | inconclusive: 31.6 µM [cytotoxic, single point]
68 | CC(C)(C)c1ccc(-c2conc2N)cc1 | – | inconclusive: 10 µM [cytotoxic, partial curve]
69 | COc1cccc(-c2nnc(SCC(=O)N(C(C)C)C(C)C)o2)c1 | inactive: -24.2% | –
70 | COc1ccc2c(OC)c3ccoc3nc2c1OC | – | inconclusive: 25.1 µM [cytotoxic, partial curve, poor fit]
71 | O=C1NC(Nc2nc3ccccc3s2)(C(F)(F)F)C(=O)N1C1CCCCC1 (configuration not stated) | – | inconclusive: 31.6 µM [cytotoxic, single point]
72 | O=C(NCc1ccco1)c1ccc(COc2cc(Cl)ccc2Cl)cc1 | – | inconclusive: 35.5 µM [cytotoxic, single point]

Reference: PubChem BioAssay AID902 (National Center for Advancing Translational Sciences (NCATS), 2007)
